# Experimental data from PubChem BioAssay AID1645887 (National Center for Advancing Translational Sciences (NCATS), 2021).
# “And” between values parts separate entries of the source, which are not always exact repeats. Equal entries are not always repeated. Hit rate of the full screen: of about 16,000 compounds, about 40 (0.2%) were called active. About 1% were inconclusive and are not listed. Calls come from the whole dose curve; as a rule, active = well fitted activation curve with a large enough effect; inconclusive = small, poorly fitted or top-dose-only effect, or another doubt; inactive = no such curve, though single readings can be large or run the other way. The list shows a part of the results. Where a structure was tested more than once in an assay, its records may differ in their call.
# Biological target: Rap guanine nucleotide exchange factor 4 (Homo sapiens) (UniProt Q8WZA2)
# UniProt Q8WZA2, sequence (Q8WZA2 whole entry, looked up): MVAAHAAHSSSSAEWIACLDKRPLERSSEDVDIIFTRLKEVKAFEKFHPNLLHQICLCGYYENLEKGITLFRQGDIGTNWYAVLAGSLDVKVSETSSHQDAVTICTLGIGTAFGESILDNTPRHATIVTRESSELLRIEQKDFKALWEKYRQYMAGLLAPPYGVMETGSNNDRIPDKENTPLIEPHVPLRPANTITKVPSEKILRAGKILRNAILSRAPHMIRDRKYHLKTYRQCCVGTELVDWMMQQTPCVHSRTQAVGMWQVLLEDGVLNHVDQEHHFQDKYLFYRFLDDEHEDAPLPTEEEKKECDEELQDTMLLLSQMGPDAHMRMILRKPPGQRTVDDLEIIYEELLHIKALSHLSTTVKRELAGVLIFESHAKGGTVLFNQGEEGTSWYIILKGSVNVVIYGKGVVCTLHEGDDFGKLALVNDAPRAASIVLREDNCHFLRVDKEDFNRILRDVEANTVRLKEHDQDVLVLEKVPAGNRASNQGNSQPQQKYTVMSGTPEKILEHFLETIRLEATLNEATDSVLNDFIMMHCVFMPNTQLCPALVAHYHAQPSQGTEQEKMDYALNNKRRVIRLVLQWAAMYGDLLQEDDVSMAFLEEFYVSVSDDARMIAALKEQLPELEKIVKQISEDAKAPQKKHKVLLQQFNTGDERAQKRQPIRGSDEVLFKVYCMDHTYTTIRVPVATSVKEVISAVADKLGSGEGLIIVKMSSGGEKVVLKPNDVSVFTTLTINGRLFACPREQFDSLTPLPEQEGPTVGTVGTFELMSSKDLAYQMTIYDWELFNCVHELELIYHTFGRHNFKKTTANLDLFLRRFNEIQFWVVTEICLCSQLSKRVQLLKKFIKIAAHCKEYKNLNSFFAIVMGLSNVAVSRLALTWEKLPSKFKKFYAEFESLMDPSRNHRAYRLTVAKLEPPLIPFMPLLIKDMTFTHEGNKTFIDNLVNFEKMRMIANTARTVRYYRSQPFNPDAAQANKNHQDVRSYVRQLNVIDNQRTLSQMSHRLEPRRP
# Experiment: Validation qHTS for agonist of cAMP-regulated guanine nucleotide exchange factor 4 (EPAC2);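 for activation: exchange makes BODIPY-GDP fluorescence drop when released from Rap1B; series mostly up to about 150 µM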
# Conditions: EPAC2 Rap1B BODIPY-GDP exchange, fluorescence; activation: stronger effect = higher value
# Procedure, shortened: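 Fluorescent exchange assay: 100 nM EPAC2 with 250 nM RAP1B-BODIPY-GDP and 50 uM GDP; compound added, 5 min at room temperature, then read (ex 480/em 540 nm) every 5 min for 30 min. Normalized to 6.5 mM cAMP agonist control.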
# % is set by controls: 0 for no effect and ±100 for the full control effect; potency is the fitted concentration of half-maximal effect.
SMILES,activation,Potency
COc1ccc(C(=O)N2CCC3(CCN(C)CC3)CC2)cc1,inactive: -6.12%,–
Cc1ccc2[nH]c(C(=O)N3CCc4c(cnc(C)c4CNC(=O)c4ccccc4F)C3)cc2c1,inactive: -2.9%,–
CCCCCCCCC(=O)NCc1cc(OC)c(O)cc1I,inactive: -54.8%,–
Cc1c(NC(=O)c2cccnc2)c(=O)n(-c2ccccc2)n1C,inactive: -13.2% and inactive: -23.4%,–
Nc1nc2nc(Cl)[nH]c2c(=O)[nH]1,inactive: 0.988%,–
O=S1(=O)CCOC[C@H](Cc2ccccc2)N1Cc1ccccc1Br,inactive: -6.13%,–
Cc1nnc(C(C)C)n1C1C[C@H]2CC[C@@H](C1)N2CC[C@H](NC(=O)C1CCC(F)(F)CC1)c1ccccc1 (some centres undefined),inactive: -1.82%,–
O=C(Nc1ccc(Br)cc1)c1cc(Br)c(Br)s1,inactive: 18.5%,–
OCc1c[nH]c2ccccc12,inactive: -21.7% and inactive: -24.1%,–
COC(=O)C1=C(C)NC(C)=C([N+](=O)[O-])[C@H]1c1ccccc1C(F)(F)F,inactive: -35%,–
COc1ccc(CNC(=O)c2cnn(-c3nccc(-c4ccco4)n3)c2C)cc1OC,inactive: -3.1%,–
CC(=O)NCc1c(I)c(NC(C)=O)c(I)c(C(=O)O)c1I,inactive: 4.21%,–
COc1ccc(C(=O)C2C3C4COC(O4)C(=O)C3C3C=Cc4ccccc4N32)c(OC)c1 (centres undefined),inactive: 11%,–
Cc1nc2cnc(N3CCNCC3)nc2n(CCC#N)c1=O,inactive: -3.11%,–
CN1C(=O)CC[C@H]1c1cccnc1,inactive: 20.4% and inactive: -18%,–
CC(C)N1CCN(c2ccc(OC[C@H]3CO[C@](Cn4cncn4)(c4ccc(Cl)cc4Cl)O3)cc2)CC1,inactive: -11.7%,–
CC[C@@]1(O)C[C@H](O[C@H]2C[C@H](N(C)C)[C@H](O[C@H]3C[C@H](O)[C@H](O[C@H]4CCC(=O)[C@H](C)O4)[C@H](C)O3)[C@H](C)O2)c2c(cc3c(c2O)C(=O)c2c(O)cccc2C3=O)[C@H]1C(=O)OC,inactive: 26%,–
COC(=O)C[C@H]1c2ccccc2S(=O)(=O)N1c1ccc(N(C)C)cc1,inactive: -28.1%,–
Cc1ccc(O)c(C(CCN(C(C)C)C(C)C)c2ccccc2)c1 (centres undefined),inactive: -15.1%,–
CO[C@@H]1[C@@H](O[C@@H]2O[C@H](C)[C@@H](O[C@H]3C[C@@](C)(O)[C@@H](OC(=O)CC(C)C)[C@H](C)O3)[C@H](N(C)C)[C@H]2O)[C@@H](CC=O)C[C@@H](C)C(=O)/C=C/C2OC2C[C@@H](C)OC(=O)C[C@H]1OC(C)=O (some centres undefined),inactive: 3.39%,–
COc1ccc(Oc2ncc3nc(C)c(=O)n(C4CC4)c3n2)cc1,inactive: 14.5%,–
N#Cc1cccc(-c2nc3cnc(N4CCOCC4)nc3n(C[C@H]3CCCO3)c2=O)c1,inactive: -9.35%,–
CCOC(=O)c1ccccc1O,inactive: 4.76% and inactive: 5.12%,–
COCC(C)NCc1cc2ccc(OC)cc2nc1N1CCN(c2ccc(F)cc2)CC1 (centres undefined),inactive: -1.58%,–
Cc1noc(C)c1-c1ccc2ncnc(N3CCOCC3)c2c1,inactive: -2.61%,–
Cc1cc(O)c(C=O)c(O)c1C(=O)O,inactive: -13.6%,–

SMILES,activation,Potency
O=c1c(-c2ccc(F)cc2)nc2cncnc2n1C1CC1,inactive: -18.9%,–
COc1ccc(CN2CC[C@H]3C=CC[C@@H](C(=O)N4CCOCC4)[C@H]3C2=O)cc1OC,inactive: -1.06%,–
CCCCCCCCCC(=O)N[C@H](CN1CCOCC1)[C@H](O)c1ccccc1,inactive: -5.79%,–
CN1[C@@H]2CC[C@H]1CC(OC(=O)C(O)c1ccccc1)C2 (some centres undefined),inactive: -0.742% and inactive: 3.06% and inactive: -10.1%,–
O=C(c1ccncc1)N1CCC2(CCN(Cc3ccncc3)CC2)CC1,inactive: -5.7%,–
CC/C=C\C/C=C\C/C=C\CCCCCCCCCCCC(=O)O,inactive: -1.27%,–
O=C(Nc1cccc(F)c1)N1CCCC2(CCN(C(=O)c3cc(C(F)(F)F)cc(C(F)(F)F)c3)CC2)C1,inactive: -29.3%,–
Nc1ncnc2c1ncn2[C@H]1O[C@H](CO)[C@@H](O)[C@@H]1O,inactive: -30.4%,–
CC(C)[C@@H]1CC[C@@H](C)C[C@H]1OC(=O)c1ccccc1O,inactive: 2.49%,–
COCc1c(C(=O)N2CCN(C3CCCCC3)CC2)cnn1-c1ncc(C)c(-c2cccs2)n1,inactive: -1.16%,–
O=C(c1ccncc1)N1CCC2(CC1)CN(C(c1ccccc1)c1ccccc1)C2,inactive: 3.63%,–
COc1ccc(Cl)cc1N=Nc1ncc[nH]1,inactive: -19.3% and inactive: -12.5%,–
Cc1c(-c2ccc(O)cc2)nn(-c2ccc(O)cc2)c1-c1ccc(OCCN2CCCCC2)cc1,inactive: -6.37%,–
CCn1c(-c2ccccc2F)nc2cc(NC(C)=O)cc(C(=O)N(C)Cc3ccc4nccnc4c3)c21,inactive: 4.22%,–
COC(=O)c1c(OCc2ccc(F)cc2)cc(=O)n2c1CCN(Cc1ccc3cccnc3c1)CC2,inactive: -2.07%,–
CN(C)C(=O)c1ccc(-c2nccc(Nc3ccc(F)cc3)n2)cc1,inactive: -17.9%,–
C[C@@H]1CN(Cc2ccc3c(c2)CN(Cc2cccn2-c2ccccn2)CCO3)C[C@H](C)O1,inactive: -10.2%,–
CCn1c(=O)[nH]c2cc(Cl)c(Cl)cc21,inactive: -16.2% and inactive: -14.2%,–
CCC(C)(Oc1ccc(C2(c3ccc(OC(C)(CC)C(=O)O)cc3)CCCCC2)cc1)C(=O)O (centres undefined),inactive: -1.01%,–
COc1ccccc1CNc1ncncc1-c1ccccc1C(F)(F)F,inactive: 1.19%,–
OCC1NCC(O)C(O)C1O (centres undefined),inactive: -21.7%,–
CCN(CC)CC(=O)Nc1c(C)cccc1C,inactive: 9.12% [middle of 4 runs],–
COC(=O)CC1C(C)(C)C(=O)C2CC3=C(CC[C@]4(C)C3=CC(=O)OC4c3ccoc3)[C@@]1(C)C2=O (some centres undefined),inactive: -4.15%,–
Cc1ccc2ncc(C)c(/C=C/c3ccc(N(C)C)cc3)c2c1,inactive: -11.7%,–
O=C(c1cccc(F)c1)N1CCC2(CCCN(c3ccccn3)C2)CC1,inactive: 3.46%,–
CC(=O)Nc1ccc(SC[C@H](C)CN2CC[C@H](O)CCC2=O)cc1,inactive: -17.2%,–

SMILES,activation,Potency
CCC(=O)O[C@@H]1CC(=O)O[C@H](C)C/C=C/C=C/[C@H](O)[C@H](C)C[C@H](CC=O)[C@H](O[C@@H]2O[C@H](C)[C@@H](O[C@H]3C[C@@](C)(O)[C@@H](OC(=O)CC)[C@H](C)O3)[C@H](N(C)C)[C@H]2O)[C@H]1OC,inactive: -15.9%,–
COC(=O)c1cn([C@H]2C[C@@H](C(=O)N3CCCCCC3)N(Cc3ccsc3)C2)nn1,inactive: 4.52%,–
COc1c(C)c2c(c(O)c1CC=C(C)CCC(=O)OCCN1CCOCC1)C(=O)OC2,inactive: 1.47%,–
COc1ccc(S(=O)(=O)N2c3ccc(Cl)cc3[C@@](O)(c3ccccc3Cl)[C@H]2C(=O)N2CCC[C@@H]2C(N)=O)cc1OC,inactive: -0.623%,–
CCc1noc(C)c1C(=O)NCCN1Cc2cc(OC)ccc2OC(CC)C1 (centres undefined),inactive: -13.7%,–
O=C(O)[C@@H]1C[C@H](C(=O)O)N1,inactive: -26.5%,–
N#Cc1ccccc1-c1cncnc1NCc1cccnc1,inactive: -12.6%,–
CC(=O)OCC(=O)[C@@]12OC(C)(C)O[C@@H]1C[C@H]1[C@@H]3C[C@H](F)C4=CC(=O)C=C[C@]4(C)[C@@]3(F)[C@@H](O)C[C@@]12C,inactive: 6.84%,–
Cc1cc(C)c(CN2CCC3(CCC(CNC(=O)c4ccn(C)n4)O3)CC2)cc1C (centres undefined),inactive: -3.92%,–
O=S(=O)(c1ccccc1)N1CCC2(CCN(C(c3ccccc3)c3ccccc3)CC2)CC1,inactive: -6.85%,–
C[C@]12CCC3c4ccc(O)cc4CCC3C1CC(O)C2O (some centres undefined),inactive: -9.02%,–
O=C(c1ccc(C(F)(F)F)cc1)N(Cc1cc2ccc(F)cc2nc1N1CCOCC1)C1CC1,inactive: -4.92%,–
O=C1CC2(CCCC2)CC(=O)N1CCCCNC[C@H]1COc2ccccc2O1,inactive: -22.5%,–
O=c1oc2c(O)c(O)cc3c(=O)oc4c(O)c(O)cc1c4c23,inactive: 0.203%,active: 126 µM
c1ccc(-c2ccc(N3CCCC4(CCNCC4)C3)cc2)cc1,inactive: -11%,–
COC(=O)c1ccccc1NS(C)(=O)=O,inactive: -20.1%,–
Cc1noc(C)c1C(=O)N1CCC2(CC1)CN(c1cccc(-c3ccccc3)c1)C2,inactive: 3.59%,–
COc1ccc(Oc2ncc3nc(-c4cc(F)cc(F)c4)c(=O)n(C)c3n2)cc1,inactive: -14.8%,–
COc1ccc(-c2coc3cc(OC(C)=O)cc(OC(C)=O)c3c2=O)cc1,inactive: -0.494%,–
NC(=O)NCCC[C@H](N)C(=O)O,inactive: 6.95%,–
CC(C)C[C@H]1C(=O)N2CCC[C@@H]2[C@]2(O)O[C@](NC(=O)[C@@H]3C=C4c5cccc6[nH]c(Br)c(c56)C[C@H]4N(C)C3)(C(C)C)C(=O)N12,inactive: -8.02%,–
c1coc(CNc2ncnc3nc[nH]c23)c1,inactive: -0.955% and inactive: -23.9%,–
COc1ccc2[nH]cc(CCNc3ncncc3-c3cccc(C#N)c3)c2c1,inactive: 3.1%,–
S=C(S)N1CCCC1,inactive: -3.64% and inactive: -26.9%,–
O=C1NS(=O)(=O)c2ccccc21,inactive: -7.29% and inactive: 0.068%,–
O=S(=O)(O)c1cc(O)c2c(N=Nc3ccc(Nc4ccccc4)c4c(S(=O)(=O)O)cccc34)cc(S(=O)(=O)O)cc2c1,inactive: -23.8%,–
